The other results are listed elsewhere or left out.
Columns and labels:
Assay in all cases: glycan array binding signal (z-score within array); higher = stronger binding
Details in all cases: glycan notation: IUPAC condensed, linker removed
[1] = molecular target: Fuc(a1-2)[GalNAc(a1-3)]Gal(b1-3)GlcNAc(b1-3)GalNAc
Procedure, shortened: (§1)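 Glycan array data came from 3228 arrays in the Consortium for Functional Glycomics database, and only arrays with an available protein sequence were kept. Glycan names were put into IUPAC-condensed notation, and columns mapping to the same glycan were averaged. The binding signal is a within-array Z-score, averaged across arrays of one protein sequence run at different concentrations or buffers and across linkers. A negative Z-score can be read as non-binding.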

[2] = molecular target: Fuc(a1-2)[GalNAc(a1-3)]Gal(b1-3)GlcNAc(b1-6)GalNAc
Procedure, shortened: as §1

[3] = molecular target: Fuc(a1-2)[GalNAc(a1-3)]Gal(b1-4)Glc
Procedure, shortened: as §1

[4] = molecular target: Fuc(a1-2)[GalNAc(a1-3)]Gal(b1-4)GlcNAc
Procedure, shortened: as §1

[5] = molecular target: Fuc(a1-2)[GalNAc(a1-3)]Gal(b1-4)GlcNAc(b1-2)Man
Procedure, shortened: as §1

[6] = molecular target: Fuc(a1-2)[GalNAc(a1-3)]Gal(b1-4)GlcNAc(b1-2)Man(a1-3)[Fuc(a1-2)[GalNAc(a1-3)]Gal(b1-4)GlcNAc(b1-2)Man(a1-6)]Man(b1-4)GlcNAc(b1-4)GlcNAc
Procedure, shortened: as §1

[7] = molecular target: Fuc(a1-2)[GalNAc(a1-3)]Gal(b1-4)GlcNAc(b1-2)Man(a1-3)[Fuc(a1-2)[GalNAc(a1-3)]Gal(b1-4)GlcNAc(b1-2)Man(a1-6)]Man(b1-4)GlcNAc(b1-4)[Fuc(a1-6)]GlcNAc
Procedure, shortened: as §1

[8] = molecular target: Fuc(a1-2)[GalNAc(a1-3)]Gal(b1-4)GlcNAc(b1-3)Gal(b1-4)GlcNAc
Procedure, shortened: as §1

[9] = molecular target: Fuc(a1-2)[GalNAc(a1-3)]Gal(b1-4)GlcNAc(b1-3)Gal(b1-4)GlcNAc(b1-3)Gal(b1-4)GlcNAc
Procedure, shortened: as §1

[10] = molecular target: Fuc(a1-2)[GalNAc(a1-3)]Gal(b1-4)GlcNAc(b1-3)GalNAc
Procedure, shortened: as §1

[11] = molecular target: Fuc(a1-2)[GalNAc(a1-3)]Gal(b1-4)GlcNAc(b1-3)[Fuc(a1-2)[GalNAc(a1-3)]Gal(b1-4)GlcNAc(b1-6)]GalNAc
Procedure, shortened: as §1

[12] = molecular target: Fuc(a1-2)[GalNAc(a1-3)]Gal(b1-4)GlcNAc(b1-6)GalNAc
Procedure, shortened: as §1

[13] = molecular target: Fuc(a1-2)[GalNAc(a1-3)]Gal(b1-4)[Fuc(a1-3)]GlcNAc
Procedure, shortened: as §1

[14] = molecular target: Fuc(a1-2)[GalNAc(a1-3)]Gal(b1-4)[Fuc(a1-3)]GlcNAc(b1-3)GalNAc
Procedure, shortened: as §1

[15] = molecular target: Fuc(a1-2)[GalNAc(a1-4)]Gal(b1-4)GlcNAc
Procedure, shortened: as §1

[16] = molecular target: Fuc(a1-2)[GalNAc(b1-3)]Gal
Procedure, shortened: as §1

Fuc(a1-3)GlcNAc = molecular target: Fuc(a1-3)GlcNAc
Procedure, shortened: as §1

[17] = molecular target: Fuc(a1-3)[Gal(b1-4)]Glc6S
Procedure, shortened: as §1

[18] = molecular target: Fuc(a1-3)[Gal(b1-4)]GlcNAc
Procedure, shortened: as §1

[19] = molecular target: Fuc(a1-3)[Gal(b1-4)]GlcNAc(b1-2)Man
Procedure, shortened: as §1

[20] = molecular target: Fuc(a1-3)[Gal(b1-4)]GlcNAc(b1-2)Man(a1-3)[Fuc(a1-3)[Gal(b1-4)]GlcNAc(b1-2)Man(a1-6)]Man(b1-4)GlcNAc(b1-4)GlcNAc
Procedure, shortened: as §1

[21] = molecular target: Fuc(a1-3)[Gal(b1-4)]GlcNAc(b1-2)Man(a1-3)[Fuc(a1-3)[Gal(b1-4)]GlcNAc(b1-2)Man(a1-6)]Man(b1-4)GlcNAc(b1-4)[Fuc(a1-6)]GlcNAc
Procedure, shortened: as §1

[22] = molecular target: Fuc(a1-3)[Gal(b1-4)]GlcNAc(b1-3)Gal(b1-3)[Fuc(a1-4)]GlcNAc
Procedure, shortened: as §1

[23] = molecular target: Fuc(a1-3)[Gal(b1-4)]GlcNAc(b1-3)Gal(b1-4)[Fuc(a1-3)]GlcNAc
Procedure, shortened: as §1

[24] = molecular target: Fuc(a1-3)[Gal(b1-4)]GlcNAc(b1-3)Gal(b1-4)[Fuc(a1-3)]GlcNAc(b1-3)Gal(b1-4)[Fuc(a1-3)]GlcNAc
Procedure, shortened: as §1

[25] = molecular target: Fuc(a1-3)[Gal(b1-4)]GlcNAc(b1-3)GalNAc
Procedure, shortened: as §1

[26] = molecular target: Fuc(a1-3)[Gal(b1-4)]GlcNAc(b1-6)GalNAc
Procedure, shortened: as §1

[27] = molecular target: Fuc(a1-3)[Gal(b1-4)]GlcNAc(b1-6)[Gal(b1-3)GlcNAc(b1-3)]Gal(b1-4)Glc
Procedure, shortened: as §1

[28] = molecular target: Fuc(a1-3)[Gal(b1-4)]GlcNAc6S
Procedure, shortened: as §1

[29] = molecular target: Fuc(a1-3)[Gal3S(b1-4)]Glc
Procedure, shortened: as §1

[30] = molecular target: Fuc(a1-3)[Gal3S(b1-4)]GlcNAc
Procedure, shortened: as §1

[31] = molecular target: Fuc(a1-3)[Gal3S(b1-4)]GlcNAc6S
Procedure, shortened: as §1

[32] = molecular target: Fuc(a1-3)[GalNAc(b1-4)]GlcNAc
Procedure, shortened: as §1

[33] = molecular target: Fuc(a1-3)[GalNAc(b1-4)]GlcNAc6S
Procedure, shortened: as §1

Fuc(a1-4)GlcNAc = molecular target: Fuc(a1-4)GlcNAc
Procedure, shortened: as §1

Fuc(b1-3)GlcNAc = molecular target: Fuc(b1-3)GlcNAc
Procedure, shortened: as §1

Gal(a1-2)Gal = molecular target: Gal(a1-2)Gal
Procedure, shortened: as §1

B1: CAA (Caragana arborescens) (protein)
chain: VAVEFDTFDNPDWDPRTKHIGIDVNSIRSNKTTQWGFWNRQVADVDISYEASSKTLNVSLYYPGESYIVTDVVDLKDILPEWVRIGF
glycan array binding signal (z-score) [1]: -0.23
glycan array binding signal (z-score) [2]: -0.251
glycan array binding signal (z-score) [3]: -0.248
glycan array binding signal (z-score) [4]: -0.244
glycan array binding signal (z-score) [5]: -0.241
glycan array binding signal (z-score) [6]: -0.1
glycan array binding signal (z-score) [7]: -0.223
glycan array binding signal (z-score) [8]: -0.243
glycan array binding signal (z-score) [9]: -0.233
glycan array binding signal (z-score) [10]: -0.246
glycan array binding signal (z-score) [11]: -0.247
glycan array binding signal (z-score) [12]: -0.245
glycan array binding signal (z-score) [13]: -0.233
glycan array binding signal (z-score) [14]: -0.235
glycan array binding signal (z-score) [15]: -0.236
glycan array binding signal (z-score) [16]: -0.245
glycan array binding signal (z-score) (Fuc(a1-3)GlcNAc): -0.241
glycan array binding signal (z-score) [17]: -0.224
glycan array binding signal (z-score) [18]: -0.237
glycan array binding signal (z-score) [19]: -0.237
glycan array binding signal (z-score) [20]: 1.41
glycan array binding signal (z-score) [21]: -0.226
glycan array binding signal (z-score) [22]: -0.23
glycan array binding signal (z-score) [23]: -0.24
glycan array binding signal (z-score) [24]: -0.242
glycan array binding signal (z-score) [25]: -0.236
glycan array binding signal (z-score) [26]: -0.244
glycan array binding signal (z-score) [27]: -0.254
glycan array binding signal (z-score) [28]: -0.238
glycan array binding signal (z-score) [29]: -0.24
glycan array binding signal (z-score) [30]: -0.229
glycan array binding signal (z-score) [31]: -0.24
glycan array binding signal (z-score) [32]: -0.238
glycan array binding signal (z-score) [33]: -0.25
glycan array binding signal (z-score) (Fuc(a1-4)GlcNAc): -0.239
glycan array binding signal (z-score) (Fuc(b1-3)GlcNAc): -0.241
glycan array binding signal (z-score) (Gal(a1-2)Gal): -0.244

Source: the supplement of paper PMC8728848
